Results on 32 sequences are retold here after paper PMC12820563, “FoxP3 forms a head-to-head dimer in vivo and stabilizes its multimerization on adjacent microsatellites”.

This is one part of the list.

This experiment concerns the target T1, MBP-FoxP1dN (Mus musculus, UniProt P58462 326-579).
T1 sequence: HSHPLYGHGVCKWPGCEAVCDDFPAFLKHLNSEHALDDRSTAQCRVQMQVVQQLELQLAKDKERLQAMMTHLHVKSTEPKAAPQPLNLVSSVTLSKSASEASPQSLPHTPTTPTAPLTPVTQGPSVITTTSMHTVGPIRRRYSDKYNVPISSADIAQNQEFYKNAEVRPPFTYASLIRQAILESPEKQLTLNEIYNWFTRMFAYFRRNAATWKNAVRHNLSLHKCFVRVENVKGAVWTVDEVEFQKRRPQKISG
The experiment can be described thus: PD-seq (MBP pull-down with sequencing); 20 mM Tris-HCl pH 7.5, 100 mM NaCl, 1.5 mM MgCl2, 0.4 uM protein, 0.1 uM dsDNA library, 30 min, room temperature, amylose pull-down; high values mean tight binding. As to conditions: protein: recombinant; tags: His6-MBP; chain copies: 2; dsDNA, one strand shown. A digest of the protocol: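 A degenerate double-stranded DNA library, filled in with Klenow, was added at 0.1 µM to 0.4 µM His6-MBP-tagged mouse FoxP3 or FoxP1 fragment lacking the N-terminus, expressed in E. coli. Incubation lasted 30 min at room temperature in Tris pH 7.5 buffer with NaCl and MgCl2, after which complexes were collected on amylose resin, washed three times, digested with proteinase K to free the DNA, barcoded by PCR and sequenced by Illumina. Binding is the pooled-replicate reads-per-million enrichment of pull-down over input.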
On to “GATGATTGTTCTCCCAGCTGATGAATTCCGTTCCTCGAGTAAACAAATTTTCCTAATCTTTCTGTTCAAGCGCCATCTAC”, for which the binding signal is 0.754 RPM ratio (pull-down/input). Consider “GATGATTGTTCTCCCAGCTGATGAATTGGAAGCATCGAGTAAACAAATTTTCCTAATCTTTCTGTTCAAGCGCCATCTAC”, for which the binding signal is 1.05 RPM ratio (pull-down/input).

Consider “GATGATTGTTCTCCCAGCTGATGAATTCGGGGATTCGAGTAAACAAATTTTCCTAATCTTTCTGTTCAAGCGCCATCTAC”, for which the binding signal was 0.822 RPM ratio (pull-down/input).

As to “GATGATTGTTCTCCCAGCTGATGAATTGGATCTTTCGAGTAAACAAATTTTCCTAATCTTTCTGTTCAAGCGCCATCTAC”, the binding signal was 0.852 RPM ratio (pull-down/input). For “GATGATTGTTCTCCCAGCTGATGAATTCTGATGCTCGAGTAAACAAATTTTCCTAATCTTTCTGTTCAAGCGCCATCTAC” the value was 1.06 RPM ratio (pull-down/input); for “GATGATTGTTCTCCCAGCTGATGAATTAGTTCTTTCGAGTAAACAAATTTTCCTAATCTTTCTGTTCAAGCGCCATCTAC”, 0.939 RPM ratio (pull-down/input). Then “GATGATTGTTCTCCCAGCTGATGAATTCAGACCTTCGAGTAAACAAATTTTCCTAATCTTTCTGTTCAAGCGCCATCTAC”, with 0.799 RPM ratio (pull-down/input); and “GATGATTGTTCTCCCAGCTGATGAATTACAATCCTCGAGTAAACAAATTTTCCTAATCTTTCTGTTCAAGCGCCATCTAC”, with 1.21 RPM ratio (pull-down/input); and “GATGATTGTTCTCCCAGCTGATGAATTCCGAGTTTCGAGTAAACAAATTTTCCTAATCTTTCTGTTCAAGCGCCATCTAC”, with 0.777 RPM ratio (pull-down/input). Regarding “GATGATTGTTCTCCCAGCTGATGAATTCCGTTGATCGAGTAAACAAATTTTCCTAATCTTTCTGTTCAAGCGCCATCTAC”, the binding signal was 0.963 RPM ratio (pull-down/input). For “GATGATTGTTCTCCCAGCTGATGAATTTGGGACCTCGAGTAAACAAATTTTCCTAATCTTTCTGTTCAAGCGCCATCTAC”, the binding signal is 0.812 RPM ratio (pull-down/input). Take “GATGATTGTTCTCCCAGCTGATGAATTACGGACATCGAGTAAACAAATTTTCCTAATCTTTCTGTTCAAGCGCCATCTAC”: the binding signal was 1.02 RPM ratio (pull-down/input). For “GATGATTGTTCTCCCAGCTGATGAATTTCAAAATTCGAGTAAACAAATTTTCCTAATCTTTCTGTTCAAGCGCCATCTAC” the value was 0.891 RPM ratio (pull-down/input); for “GATGATTGTTCTCCCAGCTGATGAATTAAATTGGTCGAGTAAACAAATTTTCCTAATCTTTCTGTTCAAGCGCCATCTAC”, 0.81 RPM ratio (pull-down/input); for “GATGATTGTTCTCCCAGCTGATGAATTGCTACAGTCGAGTAAACAAATTTTCCTAATCTTTCTGTTCAAGCGCCATCTAC”, 1.11 RPM ratio (pull-down/input).

As for “GATGATTGTTCTCCCAGCTGATGAATTACCAGTTTCGAGTAAACAAATTTTCCTAATCTTTCTGTTCAAGCGCCATCTAC”, the binding signal is 0.973 RPM ratio (pull-down/input).

With “GATGATTGTTCTCCCAGCTGATGAATTAACTACTTCGAGTAAACAAATTTTCCTAATCTTTCTGTTCAAGCGCCATCTAC”, the binding signal was 0.969 RPM ratio (pull-down/input). Take “GATGATTGTTCTCCCAGCTGATGAATTCAAGACTTCGAGTAAACAAATTTTCCTAATCTTTCTGTTCAAGCGCCATCTAC”: the binding signal is 0.797 RPM ratio (pull-down/input). Take “GATGATTGTTCTCCCAGCTGATGAATTTTCGCAATCGAGTAAACAAATTTTCCTAATCTTTCTGTTCAAGCGCCATCTAC”: the binding signal was 1.35 RPM ratio (pull-down/input). For “GATGATTGTTCTCCCAGCTGATGAATTCCCGGTTTCGAGTAAACAAATTTTCCTAATCTTTCTGTTCAAGCGCCATCTAC” the value was 0.755 RPM ratio (pull-down/input). Regarding “GATGATTGTTCTCCCAGCTGATGAATTGAGGAGTTCGAGTAAACAAATTTTCCTAATCTTTCTGTTCAAGCGCCATCTAC”, the binding signal was 0.802 RPM ratio (pull-down/input). Regarding “GATGATTGTTCTCCCAGCTGATGAATTCCTCCGCTCGAGTAAACAAATTTTCCTAATCTTTCTGTTCAAGCGCCATCTAC”, the binding signal was 0.803 RPM ratio (pull-down/input). Then “GATGATTGTTCTCCCAGCTGATGAATTTTGCCATTCGAGTAAACAAATTTTCCTAATCTTTCTGTTCAAGCGCCATCTAC”, with 1.02 RPM ratio (pull-down/input); and “GATGATTGTTCTCCCAGCTGATGAATTTGAGTGGTCGAGTAAACAAATTTTCCTAATCTTTCTGTTCAAGCGCCATCTAC”, with 0.788 RPM ratio (pull-down/input). Turning to “GATGATTGTTCTCCCAGCTGATGAATTGGCGAACTCGAGTAAACAAATTTTCCTAATCTTTCTGTTCAAGCGCCATCTAC”, the binding signal was 0.801 RPM ratio (pull-down/input). For “GATGATTGTTCTCCCAGCTGATGAATTAATGAGTTCGAGTAAACAAATTTTCCTAATCTTTCTGTTCAAGCGCCATCTAC” the value was 0.864 RPM ratio (pull-down/input); for “GATGATTGTTCTCCCAGCTGATGAATTTCAGCTTTCGAGTAAACAAATTTTCCTAATCTTTCTGTTCAAGCGCCATCTAC”, 0.925 RPM ratio (pull-down/input). For “GATGATTGTTCTCCCAGCTGATGAATTTAGTAATTCGAGTAAACAAATTTTCCTAATCTTTCTGTTCAAGCGCCATCTAC” the value was 1.17 RPM ratio (pull-down/input).

Regarding “GATGATTGTTCTCCCAGCTGATGAATTCGATGTTTCGAGTAAACAAATTTTCCTAATCTTTCTGTTCAAGCGCCATCTAC”, the binding signal is 1.06 RPM ratio (pull-down/input).

For the sequence “GATGATTGTTCTCCCAGCTGATGAATTAGGTCGCTCGAGTAAACAAATTTTCCTAATCTTTCTGTTCAAGCGCCATCTAC”, the binding signal was 0.826 RPM ratio (pull-down/input). Turning to “GATGATTGTTCTCCCAGCTGATGAATTGGCACTCTCGAGTAAACAAATTTTCCTAATCTTTCTGTTCAAGCGCCATCTAC”, the binding signal is 0.883 RPM ratio (pull-down/input).

For the sequence “GATGATTGTTCTCCCAGCTGATGAATTCGAAGGCTCGAGTAAACAAATTTTCCTAATCTTTCTGTTCAAGCGCCATCTAC”, the binding signal was 0.894 RPM ratio (pull-down/input).
